Data as given in the supplement of paper PMC9446081.
In all, about 39,000 compounds went through this assay and about 220 (0.56%) showed activity. This is one part of the list.

These compounds were tested on Escherichia coli K-12 BW25113 (assay: relative growth (OD600 normalised to plate interquartile mean) (fraction); higher = less growth inhibition, active = 0.2 or less). Conditions: 50 µM; LB; incubation time: overnight (16-24 h).
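Further: static incubation at 37 °C against the wild-type strain, values averaged over two biological replicates.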

Structure (SMILES) | relative growth
Cc1noc(C)c1NC(=O)Nc1ccc2c(c1)C(=O)N([C@H](C)CO)C[C@H](C)[C@H](CN(C)C(=O)C1CCCCC1)OCCCC[C@H](C)O2 | inactive: 0.995
Cc1noc(C)c1NC(=O)N(C)C[C@@H]1OCCCC[C@H](C)Oc2ccc(NC(=O)Nc3ccc4c(c3)OCO4)cc2C(=O)N([C@H](C)CO)C[C@@H]1C | inactive: 1
Cc1ccc(S(=O)(=O)Nc2ccc3c(c2)CC(=O)N([C@H](C)CO)C[C@H](C)[C@@H](CN(C)S(=O)(=O)c2cn(C)cn2)O3)cc1 | inactive: 1
C[C@@H]1CCCCO[C@H](CN(C)Cc2ccc3c(c2)OCO3)[C@H](C)CN([C@H](C)CO)C(=O)c2cc(NC(=O)NC3CCCCC3)ccc2O1 | inactive: 1.02
CCN(CC)CCS(=O)(=O)[C@@H]1CCN2C(=O)c3coc(n3)CC(=O)C[C@H](O)/C=C(C)/C=C\CNC(=O)/C=C/[C@@H](C)[C@H](C(C)C)OC(=O)[C@@H]12 | inactive: 0.972
C[C@H]1CN([C@@H](C)CO)C(=O)c2cc(-c3cccc(C(=O)N(C)C)c3)cnc2O[C@@H]1CN(C)S(=O)(=O)c1cccc(F)c1 | inactive: 0.992
C[C@H](CO)N1C[C@H](C)[C@H](CN(C)Cc2ccncc2)OCCCC[C@H](C)Oc2ccc(NC(=O)Nc3ccc(F)cc3)cc2C1=O | inactive: 0.997
NCCNc1cccc2ccccc12 | inactive: 0.949
C[C@@H]1CCCCO[C@@H](CN(C)C(=O)NC2CCCCC2)[C@H](C)CN([C@H](C)CO)C(=O)c2cc(NC(=O)c3ccncc3)ccc2O1 | inactive: 0.981
O=C(C[C@@H]1CC[C@H](NC(=O)Cc2ccccn2)[C@@H](CO)O1)NCCCN1CCOCC1 | inactive: 0.994
Cc1ccc(S(=O)(=O)N(C)C[C@@H]2Oc3c(NS(=O)(=O)c4ccccc4)cccc3C(=O)N([C@@H](C)CO)C[C@H]2C)cc1 | inactive: 0.959
CC(C)NC(=O)Nc1ccc2c(c1)C(=O)N([C@H](C)CO)C[C@H](C)[C@H](CN(C)C(=O)C1CCCCC1)OCCCC[C@@H](C)O2 | inactive: 1.02
C[C@H]1CCCCO[C@@H](CN(C)C(=O)Nc2cccc3ccccc23)[C@@H](C)CN([C@@H](C)CO)C(=O)c2cc(NS(=O)(=O)c3cccs3)ccc2O1 | inactive: 0.995
C[C@@H]1CN([C@H](C)CO)C(=O)c2cccc(NC(=O)Nc3ccc(F)cc3)c2O[C@H]1CN(C)S(=O)(=O)c1cn(C)cn1 | inactive: 0.969
C[C@H](CO)N1C[C@H](C)[C@@H](CN(C)Cc2ccc(Oc3ccccc3)cc2)Oc2ccc(NC(=O)C3CC3)cc2C1=O | inactive: 0.915
N=C(NO)c1ccccc1N | inactive: 1.02
COc1ccc(CN(C)C[C@@H]2OCCCC[C@@H](C)Oc3ccc(NS(=O)(=O)c4ccc(Cl)cc4)cc3C(=O)N([C@@H](C)CO)C[C@H]2C)cc1 | inactive: 1.01
C[C@H](CO)N1C[C@H](C)[C@@H](CN(C)S(=O)(=O)c2cccc(F)c2)Oc2ncc(C#CC3(O)CCCC3)cc2C1=O | inactive: 1.01
Cc1ccccc1-c1ccc2c(c1)O[C@H](CN(C)C(=O)Nc1ccc(C(F)(F)F)cc1)[C@@H](C)CN([C@@H](C)CO)S2(=O)=O | inactive: 0.981

Structure (SMILES) | relative growth
COc1ccc(NC(=O)Nc2ccc3c(c2)C(=O)N([C@@H](C)CO)C[C@H](C)[C@H](CN(C)Cc2ccc(C(=O)O)cc2)OCCCC[C@H](C)O3)cc1 | inactive: 1
CN1CCN(C(=O)C[C@@H]2C=C[C@H](NC(=O)Nc3ccccc3F)[C@@H](CO)O2)CC1 | inactive: 1.01
C=CCN(CC=C)S(=O)(=O)c1nnc[nH]1 | inactive: 0.972
C[C@H]1CN([C@@H](C)CO)C(=O)c2cc(NC(=O)Cn3cnnn3)ccc2O[C@@H]1CN(C)S(=O)(=O)c1cccs1 | inactive: 0.984
CCCCCC[C@@H](O)CC=CCCCCCCCC(=O)O | inactive: 0.998
C[C@@H]1CCCCO[C@@H](CN(C)S(=O)(=O)c2ccc(F)cc2)[C@H](C)CN([C@H](C)CO)C(=O)c2cc(NC(=O)CCC(F)(F)F)ccc2O1 | inactive: 0.969
COc1cccc(-c2ccc3c(c2)O[C@H](CN(C)C(=O)C2CC2)[C@H](C)CN([C@H](C)CO)S3(=O)=O)c1 | inactive: 0.991
C[C@H]1CN([C@@H](C)CO)C(=O)Cc2cc(NC(=O)Cn3cnnn3)ccc2O[C@@H]1CN(C)Cc1ccc(Cl)c(Cl)c1 | inactive: 0.98
Cc1ccc(S(=O)(=O)Nc2ccc3c(c2)C(=O)N([C@@H](C)CO)C[C@H](C)[C@@H](CN(C)C(=O)CCC(F)(F)F)OCCCC[C@@H](C)O3)cc1 | inactive: 1.03
CCCNC(=O)C[C@H]1CC[C@H]2[C@H](COc3ccc(NS(=O)(=O)c4ccccc4C)cc3C(=O)N2C)O1 | inactive: 0.998
CC(C)NC(=O)N(C)C[C@H]1Oc2ccc(NC(=O)c3ccncc3)cc2CC(=O)N([C@H](C)CO)C[C@H]1C | inactive: 0.961
C[C@@H]1CCCCO[C@H](CN(C)S(=O)(=O)c2cccs2)[C@H](C)CN([C@H](C)CO)C(=O)c2cc(NC(=O)Nc3ccc(F)cc3)ccc2O1 | inactive: 1.03
C[C@@H]1CN([C@@H](C)CO)C(=O)c2cccc(NC(=O)C3CCCCC3)c2O[C@H]1CN(C)Cc1ccc(-c2ccccc2)cc1 | inactive: 1.04
COc1cccc(CN(C)C[C@@H]2OCc3ccccc3-c3c(n(C)c4ccccc34)C(=O)N([C@H](C)CO)C[C@H]2C)c1 | inactive: 1
C[C@H](CO)N1C[C@H](C)[C@H](CN(C)C(=O)Nc2ccc3c(c2)OCO3)Oc2ccc(NS(C)(=O)=O)cc2CC1=O | inactive: 0.983
CC(C)NC(=O)N(C)C[C@@H]1OCCCC[C@@H](C)Oc2ccc(NS(=O)(=O)c3cn(C)cn3)cc2C(=O)N([C@@H](C)CO)C[C@H]1C | inactive: 0.993
C[C@@H]1CN([C@@H](C)CO)C(=O)c2cc(NC(=O)Cc3ccccc3)ccc2O[C@@H]1CN(C)Cc1ccc(C(=O)Nc2ccccc2N)cc1 | inactive: 1.02
C[C@@H]1CN([C@@H](C)CO)C(=O)c2cc(NS(C)(=O)=O)ccc2O[C@@H]1CN(C)C(=O)NC1CCCCC1 | inactive: 0.987
